Results on 56 molecules are retold here after publication PMC4336329 (PLoS ONE, 2015).

The structures appear in SMILES notation. About 14,000 (4.5%) of roughly 310,000 compounds showed an effect of 50% or more. The effect is printed as a negative number. This is one part of the list.
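Note: peak tail current of the secondary pulse compared with the same well before compound.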

Sequence of human ether-à-go-go-related gene (hERG) potassium channel (Q12809 whole entry, looked up): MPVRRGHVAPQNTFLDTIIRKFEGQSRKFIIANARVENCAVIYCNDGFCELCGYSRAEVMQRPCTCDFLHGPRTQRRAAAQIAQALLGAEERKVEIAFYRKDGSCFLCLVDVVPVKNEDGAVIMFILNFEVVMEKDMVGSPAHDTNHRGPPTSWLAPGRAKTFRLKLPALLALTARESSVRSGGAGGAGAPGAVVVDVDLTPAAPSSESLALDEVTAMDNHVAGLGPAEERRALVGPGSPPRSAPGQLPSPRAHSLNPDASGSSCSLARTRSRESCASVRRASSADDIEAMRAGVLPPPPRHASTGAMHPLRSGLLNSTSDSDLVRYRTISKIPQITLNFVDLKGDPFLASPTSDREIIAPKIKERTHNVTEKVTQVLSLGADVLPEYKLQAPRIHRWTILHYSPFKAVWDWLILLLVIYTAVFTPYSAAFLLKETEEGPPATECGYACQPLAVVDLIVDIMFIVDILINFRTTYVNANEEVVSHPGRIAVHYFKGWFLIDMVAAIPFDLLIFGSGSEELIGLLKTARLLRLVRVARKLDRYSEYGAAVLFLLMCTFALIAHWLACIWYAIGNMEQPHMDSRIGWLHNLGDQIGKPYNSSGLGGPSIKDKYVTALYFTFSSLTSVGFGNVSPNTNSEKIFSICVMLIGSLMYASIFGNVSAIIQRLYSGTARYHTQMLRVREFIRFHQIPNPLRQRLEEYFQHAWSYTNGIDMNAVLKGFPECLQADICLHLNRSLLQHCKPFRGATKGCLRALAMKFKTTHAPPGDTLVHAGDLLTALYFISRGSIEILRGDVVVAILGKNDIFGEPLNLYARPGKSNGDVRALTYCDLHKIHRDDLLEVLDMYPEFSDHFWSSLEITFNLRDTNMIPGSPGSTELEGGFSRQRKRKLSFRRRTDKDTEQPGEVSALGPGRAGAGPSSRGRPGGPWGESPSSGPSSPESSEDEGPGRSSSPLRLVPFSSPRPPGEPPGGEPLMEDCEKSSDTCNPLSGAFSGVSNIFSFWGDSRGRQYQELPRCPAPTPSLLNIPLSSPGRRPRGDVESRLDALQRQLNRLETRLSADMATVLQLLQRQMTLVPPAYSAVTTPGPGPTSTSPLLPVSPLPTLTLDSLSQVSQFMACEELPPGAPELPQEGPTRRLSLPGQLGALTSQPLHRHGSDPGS

The experiment concerns the target human ether-à-go-go-related gene (hERG) potassium channel (human, UniProt Q12809). The experiment in a line: primary screen, population patch clamp on CHO cells stably expressing hERG.
Consider `CC(=O)Nc1ccc(NC(=O)COc2ccc(S(=O)(=O)NC(C)c3ccccc3)cc2)cc1` (centres unmarked), for which the “hERG current change (%, negative = inhibition) at 10uM” value was 44.6%.
Regarding `Cc1ccc(NC(=O)c2cccc(N3C(=O)CCC3=O)c2)nc1`, the “hERG current change (%, negative = inhibition) at 10uM” value is 3.86%.
The figure for `O=C(NC(=S)Nc1ccc(N2CCCCC2)cc1)c1cccs1` is 2.04%; for `Cc1cc(C(=O)OCC(=O)Nc2cc(C)on2)c2ccccc2n1` it is -3.21%.
The figure for `Cc1c(NC(=O)C(C)OC(=O)c2ccc(Cl)nc2)c(=O)n(-c2ccccc2)n1C` (centres unmarked) is -2.18%; for `O=S(=O)(c1ccc2ccccc2c1)N1CCN(C(=S)Nc2ccc(F)cc2)CC1` it is -3.88%; for `O=C(Nc1sc2c(c1C(=O)O)CCCC2)C(=O)N1CCOCC1` it is 35%.
The same measure for `COc1ccc(C)c(Cn2c(-c3nonc3N)nc3ccccc32)c1`: 0.531%; for `CCN(CC)C(=O)Oc1ccc(Br)c2ccccc12`: -13.7%.
With `O=C(C[n+]1ccc(C(=O)NCCCO)cc1)c1cccc(Br)c1.[Br-]`, the “hERG current change (%, negative = inhibition) at 10uM” value stood at 11.4%.
The same measure for `O=C(NCCCN1CCOCC1)C(=O)N/N=C/c1ccccc1`: -20.2%; for `Cc1cc(S(=O)(=O)NCCCN2CCOCC2)ccc1F`: -4.52%.
The figure for `CCC/C=N/NC(=O)C1COc2ccccc2O1` (centres unmarked) is 9.6%; for `Cc1ccc(C(=O)N/N=C\c2ccc(Br)o2)o1` it is 5.26%; for `O=C(CSc1nc2ncccc2[nH]1)NCc1ccco1` it is 6.5%.
The figure for `O=C1CCCC2=C1C(c1cccs1)Nc1ccc3ncccc3c12` (centres unmarked) is -1.86%; for `CSc1ccccc1C(=O)NCCCOC(C)C` it is 6.42%.
As for `O=C(O)CSc1nc2c(cnn2-c2ccccc2)c(=O)n1-c1ccc(Br)cc1`, the “hERG current change (%, negative = inhibition) at 10uM” value is 6.84%.
Take `COc1ccc(OC)c(NC(=O)CSc2nnc(CNC(=O)COc3ccc(Cl)cc3)o2)c1`: the “hERG current change (%, negative = inhibition) at 10uM” value is reported as -60.1%.
The same measure for `Cc1noc(NS(=O)(=O)c2ccc(NC(=O)c3ccc(N4C(=O)c5ccccc5C4=O)cc3)cc2)c1C`: 25.9%.
The same measure for `COc1cccc2cc(C(=O)NCCN3CCOCC3)c(=O)oc12`: 12.9%; for `Cc1c(C(=O)Nc2ccc(F)cc2)oc2ccc(S(=O)(=O)N3CCC4(CC3)OCCO4)cc12`: -4.85%; for `Cc1cc(NC(=O)Cn2nc(C(F)(F)F)c3c2CCC3)no1`: 20%.
The figure for `O=C(NCc1ccoc1)c1ccc(NC(=O)c2ccccc2Cl)cc1` is 8.89%; for `Cc1ccc(C(=O)N(Cc2nnc(-c3ccc(Cl)cc3)o2)C2CC2)o1` it is -32.6%.
`C=CCNC(=O)c1ccc(C(=O)c2ccccc2)cc1`: the “hERG current change (%, negative = inhibition) at 10uM” value is -27.8%.
The figure for `Cc1ccccc1OCc1n[nH]c(=S)n1-c1cccc(Cl)c1` is 20.3%.
The same measure for `Cc1csc(N(C(=O)c2ccc(S(=O)(=O)N(C)C)cc2)c2ccccc2)n1`: 2.84%; for `CCCCn1c(O)c(N=Nc2ccccn2)c2ccccc21`: 7.6%.
The figure for `COc1cccc(N2CCN(S(=O)(=O)c3ccc(-c4coc(C)n4)cc3)CC2)c1` is 16.5%.
In the case of `COC(=O)c1ccc(-c2n[nH]c(=O)c3ccccc23)cc1`, the “hERG current change (%, negative = inhibition) at 10uM” value is -6.97%.
The same measure for `O=C(/C=N/O)Nc1ccccc1C(=O)O`: -13.7%.
The same measure for `CC1CCCN(C(=O)COC(=O)c2n[nH]c3ccccc23)C1` (centres unmarked): -11.5%.
The same measure for `Cc1ccc(CSC2=NCCN2C(=O)C(C)Oc2ccccc2)cc1` (centres unmarked): 5.99%.
Take `Cc1cc(NC(=O)C2C3C(=O)N(CC4CCCO4)C(C(=O)NC(C)(C)C)C34C=CC2(C)O4)no1` (centres unmarked): the “hERG current change (%, negative = inhibition) at 10uM” value stood at 7.22%.
The figure for `N#Cc1c(C(F)(F)F)cc(-c2ccc(Cl)cc2)nc1SCC(=O)O` is 4.82%; for `O=C(CC(C(=O)O)c1c[nH]c2ccccc12)c1ccccc1` (centres unmarked) it is 26.2%.
In the case of `C=CCNc1nc(-c2sc(NC(C)=O)nc2C)cs1`, the “hERG current change (%, negative = inhibition) at 10uM” value was -2.04%.
Turning to `O=S(=O)(Nc1ccc(O)c(NS(=O)(=O)c2ccccc2)c1)c1ccccc1`, the “hERG current change (%, negative = inhibition) at 10uM” value is given as 5.67%.
The same measure for `COCC(C)NC(=O)CSc1nc2ccccc2c(=O)n1CCc1ccc(S(N)(=O)=O)cc1` (centres unmarked): 7.52%; for `O=Cc1cccc(Oc2ccc([N+](=O)[O-])cc2[N+](=O)[O-])c1`: -55%.
As for `C[C@@H](C(=O)NCC1CC1)[C@@H]1C[C@@]1(C)[C@@H](NC(=O)OCc1ccccc1)c1ccccc1`, the “hERG current change (%, negative = inhibition) at 10uM” value was -34.6%.
In the case of `Cc1cc(C)c(S(=O)(=O)c2ccccc2)c(OC(=O)c2c(Cl)cc(Cl)cc2Cl)n1`, the “hERG current change (%, negative = inhibition) at 10uM” value is reported as -8.9%.
The figure for `Cc1c(C(=O)N/N=C/C(C)C)[nH]c2c([N+](=O)[O-])cccc12` is 10.4%.
`Cc1c(Cl)cccc1NC(=S)N1CC2CC(C1)c1cccc(=O)n1C2` (centres unmarked): the “hERG current change (%, negative = inhibition) at 10uM” value is given as -4.67%.
The same measure for `Cc1cc(C)c(S(=O)(=O)N(CC(=O)O)CC(=O)O)c(C)c1`: 6.78%; for `CCC(C)Sc1ccc([C@H]2N[C@@](CC(C)C)(C(=O)OC)[C@H]3C(=O)N(C)C(=O)[C@@H]23)cc1.O=C(O)C(F)(F)F` (some centres unmarked): -41.8%; for `COC(C(=O)Nc1ccc(S(=O)(=O)Nc2cccc3ccccc23)cc1)c1ccccc1` (centres unmarked): -0.5%.
The figure for `CCCC(C)n1[nH]c(=O)cc1N` (centres unmarked) is 14.2%; for `O=C(CN1CCc2ccccc2C1)NC1CCCC1` it is 8%.
The same measure for `Cc1cc(NC(=O)CSc2nc3ccsc3c(=O)n2Cc2ccccn2)n[nH]1`: -1.55%; for `CCOC(=O)c1c(C)c(-c2ccccc2)n(CC(=O)NCCCN(CC)CC)c1C`: -12.6%; for `O=C(NCc1ccc(F)cc1)Nc1cccc(Cl)c1`: 25.3%.
On to `COc1cccc(NC(=S)N2CCN(S(C)(=O)=O)CC2)c1`, for which the “hERG current change (%, negative = inhibition) at 10uM” value stood at 10.3%.
Regarding `Clc1ccccc1N1CCN(Cc2ccc3c(c2)OCO3)CC1.O=C(O)C(=O)O`, the “hERG current change (%, negative = inhibition) at 10uM” value is on record as -7.35%.
For `O=C(c1ccc(N2CCCCC2)c([N+](=O)[O-])c1)N(c1ccccn1)c1ccccn1`, the “hERG current change (%, negative = inhibition) at 10uM” value is reported as 5.73%.
